Test results reported in PubChem BioAssay AID624202 (National Center for Advancing Translational Sciences (NCATS), 2012).
Hit rate of the full screen: of about 380,000 compounds, about 4,000 (1.1%) were called active. The inconclusive results got no clear call from the source; some entries with a clear call stand among them for comparison. Calls follow the shape of the dose curve; as a rule, active = well fitted activation curve with a large enough effect; inconclusive = small, poorly fitted or top-dose-only effect; inactive = no such curve, though single readings can be large or run the other way. Potencies beside an inconclusive call are fits to weak or partial responses and may not hold up.

Assay: qHTS Assay to Identify Small Molecule Activators of BRCA1 Expression; also: nearly all actives have a fitted effect of over 80% in size
Settings: MCF7-BRCA1-FFLuc reporter, luminescence, 48 h; activation: at 46.1 µM (top of the series), scaled: vehicle 0%, 10 µM genistein 100% unless noted
In short: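 48 h compound treatment of MCF7-BRCA1-FFLuc cells (phenol-red free MEM, 37 °C), then 15 min with luciferase substrate and luminescence imaging.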
Potency is read from the fitted curve at half-maximal effect; tags tell the direction and shape of the fitted curve.

Structure (SMILES) | activation | Potency
O=C(CNC(=S)N(CCCN1CCOCC1)Cc1cccs1)NCc1ccc(Cl)cc1 | inactive: -16.3% | –
Cc1ccc(-c2csc(N3CCC(C(N)=O)CC3)n2)cc1 | – | inconclusive: 1.58 µM [activator, partial curve, poor fit]
COc1cc2c(C)nc3c(cnn3-c3ccccc3)c2cc1OC | – | inconclusive: 11.2 µM [activator, partial curve, poor fit]
COc1ccc2c(c1OC)C(=O)N1c3ccccc3COC21 (configuration not stated) | – | inconclusive: 2.24 µM [activator, full curve, poor fit]
CCn1cnc2cc(NCc3nc4ccccc4n3Cc3ccccc3)ccc21 | – | inconclusive: 35.5 µM [activator, single point]
N#C/C(=C\c1ccc(OCc2ccccc2)cc1)C(=O)Nc1ccc(C(=O)O)cc1 | – | active: 11.2 µM
O=C(NNC(=O)c1ccccc1Cl)c1cccs1 | – | inconclusive: 35.5 µM [activator, single point]
COc1ccc(-c2cc(C(=O)Nc3cc(Cl)ccc3O)no2)cc1 | – | inconclusive: 2.51 µM [activator, full curve, poor fit]
O=C(O)/C=C\C(=O)Nc1ccccc1C(=O)NC1CCCCC1 | – | inconclusive: 14.1 µM [activator, single point]
CCOC(=O)c1c(N)sc(C(=O)Nc2ccccc2)c1C | inconclusive: 45.5% [activator] | –
CN(C)c1ccc(/C=C(\C#N)c2ccccc2)cc1 | – | active: 2.82 µM
CC1CCC(NC(=O)C(=O)Nc2ccc3c(c2)OCO3)CC1 (configuration not stated) | – | active: 2.82 µM
CC(=O)Oc1ccc(C2OC(=O)c3ccccc3N2C(C)=O)cc1 (configuration not stated) | inactive: 3.43% | –
NC(=O)c1cc[n+](CC(=O)c2ccc(NC(=O)c3ccccc3)cc2)cc1 | inactive: -7.15% | –
O=C(CC(=O)c1ccccn1)c1ccccc1 | – | inconclusive: 1.58 µM [activator, partial curve, poor fit]
CCCCN1C(=O)/C(=C/C=C2\SCCN2C)SC1=S | – | active: 7.08 µM
COc1ccc(Nc2nc(-c3cccnc3)cs2)c(OC)c1 | – | active: 11.2 µM
Cc1ccccc1CNC(=O)CCc1ccccc1 | – | inconclusive: 4.47 µM [activator, partial curve, poor fit]
CN(CCN1CCc2ccccc2C1)Cc1nc(-c2ccc3c(c2)OCO3)no1 | inactive: -1.12% | –
CC(C)N1CC(O)=C(c2nc3ccccc3[nH]2)C1=N | – | active: 8.91 µM
O=C(O)Cc1sc(Nc2ccccc2)nc1-c1ccc(Cl)cc1 | – | inconclusive: 20 µM [activator, single point]
N/C(=N\OC(=O)/C=C/c1ccccc1)c1ccncc1 | – | inconclusive: 22.4 µM [activator, single point]
